# Results reported in PubChem BioAssay AID1240 (Sanford-Burnham Center for Chemical Genomics, 2008).
# The whole screen tested about 50,000 compounds, of which about 800 (1.6%) showed an effect of 50% or more. Some of the results follow.
# Biological target: Bcl-2-like protein 10 (Homo sapiens) (UniProt Q9HD36)
# Assay: Phenotype converters, Bcl-B/TR3 peptide binding displacement, primary biochemical FP (AID 1240);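 also: 0% = Bcl-B with tracer peptide and DMSO and 100% = tracer peptide lacking Bcl-B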
# Settings: GST-Bcl-B / FITC-TR3 peptide fluorescence polarization; stronger effect = higher value; compound at 3.75 mg/L
# UniProt Q9HD36, sequence (Q9HD36 whole entry, looked up): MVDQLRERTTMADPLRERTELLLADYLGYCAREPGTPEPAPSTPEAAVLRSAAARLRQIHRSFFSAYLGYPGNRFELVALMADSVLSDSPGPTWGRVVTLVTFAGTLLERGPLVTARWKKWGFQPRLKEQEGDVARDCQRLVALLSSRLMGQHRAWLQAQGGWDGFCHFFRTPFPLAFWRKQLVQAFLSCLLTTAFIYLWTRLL
row,Compound,displacement
1,Cc1cccc(CN2CCN(Cc3ccc(F)cc3)CC2)c1,5.2%
2,CCOc1ccc(CNCCc2ccc(Cl)cc2)cc1,-9.7%
3,COC(=O)c1[nH]cnc1C(=O)Nc1ccc(Br)cc1C(=O)c1ccccc1,16.4%
4,COc1ccc(/C=C/c2nc3ccccc3c(=O)n2-c2ccc(O)cc2)cc1,9%
5,Cc1cc(C=C2C(=O)NC(=S)NC2=O)c(C)n1-c1ccc(F)cc1,3.8%
6,CCCCSc1nc2ccccc2c(=O)n1-c1cccc(C)c1,-6.2%
7,O=[N+]([O-])c1ccc(CNCCc2ccc(Cl)cc2)cc1,8.6%
8,Cc1ccccc1OP1(=O)OC(=O)c2cc(Cl)ccc2O1 (stereo not given),5.6%
9,CCOc1ccc(N2C(=O)/C(=C/c3cc(Cl)ccc3O)C(=O)NC2=S)cc1,0.4%
10,c1cc2c(cc1CCNC1C3CC4CC(C3)CC1C4)OCO2 (stereo not given),-15.9%
11,O=[N+]([O-])c1cc2c(cc1CNCCc1ccc(Cl)cc1Cl)OCO2,10.8%
12,CN1C(=O)NC(=O)/C(=C\c2ccc(OCc3ccc(C(=O)O)cc3)c(Br)c2)C1=O,-4.6%
13,COc1ccc(C=C2C(=O)NC(=S)NC2=O)cc1OCc1ccccc1Cl,8.2%
14,Cn1c(O)c(C=NCc2cccs2)c(=O)n(C)c1=O,0.7%
15,CN1C(=O)NC(=O)/C(=C\c2ccc(Br)s2)C1=O,6%
16,CC1(C)CN1S(=O)(=O)c1ccc(Cl)cc1 (stereo not given),5.2%
17,O=c1c2ccccc2nc(/C=C/c2ccc([N+](=O)[O-])cc2)n1-c1ccccc1O,-0.4%
18,Cc1nc2c(Cl)cc(Cl)cc2c(=O)n1-c1ccccc1F,-8.1%
19,Oc1ccc(C(=C(Cl)Cl)c2ccc(O)cc2)cc1,5.3%
20,CCCCOc1cc(C)cc2oc(=O)c3c(c12)CCCC3,-6%
21,CCC1(C)CC(CCNCc2ccc(N(C)C)cc2)(c2ccc(F)cc2)CCO1 (stereo not given),-8.3%
22,CN(CN1C(=O)C(=O)c2cc([N+](=O)[O-])ccc21)[N+](=O)[O-],-7.1%

row,Compound,displacement
1,CCN1CC2([N+](=O)[O-])CC=C(Cl)C([N+](=O)[O-])(C1)C2 (stereo not given),-18.7%
2,CC(=O)NC1(c2ccccc2)CC(C)N(C)CC1C (stereo not given),10.7%
3,COc1ccc(N2C(=O)/C(=C/c3ccc(I)o3)C(=O)NC2=S)cc1,-30.1%
4,CCCCc1ccc(C=C(C#N)C#N)s1,-8.4%
5,O=C1NC(=S)NC(=O)C1=Cc1cccc2ccccc12,0.7%
6,COc1ccc(O)c(CN2CCN(Cc3ccc(Cl)cc3)CC2)c1,13.6%
7,O=C(Cn1c[n+]([N-][N+](=O)[O-])cn1)N1CCN(C(=O)Cn2c[n+]([N-][N+](=O)[O-])cn2)CC1,15%
8,O=C(CF)NC(=C(Cl)Cl)P(=O)(c1ccccc1)c1ccccc1,-1.7%
9,COc1cc(OC)c(OC)cc1CN1CCN(C(C)C)CC1,-5.4%
10,Cc1c(-c2ccc(C=C3C(=O)NC(=S)NC3=O)o2)ccc([N+](=O)[O-])c1C,23.7%
11,COc1ccc(C=C2C(=O)NC(=S)NC2=O)c(OC)c1,11.9%
12,Cc1ccc(C(=O)Nc2ccc(Cl)cc2C(=O)c2ccccc2)cc1[N+](=O)[O-],-0.1%
13,O=C1NC(=S)NC(=O)C1=Cc1ccc(-c2ccc(S(=O)(=O)Nc3nccs3)cc2)o1,2.6%
14,CC(Nc1ccc([N+](=O)[O-])c2cccnc12)c1ccc(Br)cc1 (stereo not given),13%
15,CCN(CC)CCNc1ccc([N+](=O)[O-])c2cccnc12,10.8%
16,O=C(COc1ccccc1)N1CCN(C2CCN(Cc3ccccc3)CC2)CC1,-5.7%
17,O=C(Nc1ccc(Cl)cc1C(=O)c1ccccc1)c1cncc(Br)c1,15.9%
18,Cc1cccc(-n2c(CN3C(=O)c4ccccc4C3=O)nc3ccccc3c2=O)n1,-16.3%
19,COc1ccccc1-n1c(/C=C/c2ccc(O)c(O)c2)nc2ccccc2c1=O,-24.6%
20,CCOC(=O)c1c(-c2ccccc2)n(Cc2ccccc2)c2ccc(OC(C)=O)cc12,-4.7%
21,O=C(c1ccc([N+](=O)[O-])cc1)C12CN3CN(CN(C3)C1)C2,0%
22,O=c1c2cc(I)ccc2nc(/C=C/c2ccccc2O)n1-c1ccccc1,8.4%

row,Compound,displacement
1,O=c1c2ccccc2nc(/C=C/c2cccc(Br)c2)n1-c1ccccc1O,2.8%
2,O=C(COc1ccc2ccccc2c1)N1CCN(Cc2ccccc2[N+](=O)[O-])CC1,7.9%
3,CC1CN(C)CCC1(O)c1ccccc1 (stereo not given),3.5%
4,O=[N+]([O-])c1ccc(N2CCNCC2)cc1NC1CC1,8.5%
5,O=C1NC(=S)N(c2cccc(Br)c2)C(=O)/C1=C/c1cccs1,12.1%
6,O=c1c2ccccc2nc(-c2ccccc2F)n1-c1ccccc1Cl,-8.7%
7,Cc1ccccc1CN1CCN(C(=O)COc2ccc3ccccc3c2)CC1,-8.7%
8,CN1CCN(c2ccccc2[N+](=O)[O-])CC1,-15.4%
9,O=C(COc1ccc2ccccc2c1)N1CCN(Cc2ccc3c(c2)OCO3)CC1,-3.6%
10,CCC1(CC)C(=O)N(Cc2ccccc2)C(=O)N(Cc2ccccc2)C1=O,-2.4%
11,O=C1NC(=O)N(c2ccc(Br)cc2)C(=O)/C1=C/c1ccc(Oc2ccc([N+](=O)[O-])cn2)cc1,3%
12,Oc1ccc(Br)cc1CN1CCN(Cc2ccccc2F)CC1,-0.7%
13,Cc1ccccc1-n1c(-c2cccs2)nc2ccccc2c1=O,-3%
14,O=C1NC(=S)N(c2cccc(Br)c2)C(=O)/C1=C/C=C/c1ccccc1,-16.4%
15,COC(=O)C(Cc1ccccc1)N1CC1C(N)=O (stereo not given),12.4%
16,CC12CCCCC1=NC(c1ccccc1Cl)N2O (stereo not given),-8%
17,CC1(C)C(C(=O)NCc2ccco2)C1(C)C,19.1%
18,CC(C)N1CCC(N2CCCCC2)CC1,-7.6%
19,COC(=O)N1[C@H](c2ccccc2)[C@@H]1c1ccccc1,11.9%
20,O=C1NC(=S)NC(=O)C1=Cc1ccc(OCc2cccc3ccccc23)cc1,17.2%
21,O=C(c1ccccc1)c1cc(Cl)ccc1NC(=O)c1cc2ccccc2oc1=O,-7.2%
22,Cc1ccc(C=C2C(=O)NC(=O)NC2=O)cc1[N+](=O)[O-],8.3%

row,Compound,displacement
1,CCCCC1(C)NCCN2C(=O)CSC21 (stereo not given),4.8%
2,CC1(C)C(c2ccccc2)=NC(c2cccnc2)N1O (stereo not given),6.1%
3,COc1cc(C=C2C(=O)NC(=S)NC2=O)cc(Br)c1OCc1c(C)no[n+]1[O-],6.5%
4,CC(C)C(=O)N1N=C(c2cccnc2)CC1(O)C(F)(F)F (stereo not given),-2.2%
5,O=c1[nH]c(=O)n(Cc2ccccc2)c(O)c1C=C1C=Nc2ccccc21,8.6%
6,Cc1[nH]c2ccccc2c1CN1CCOCC1,7.9%
7,CCCC(C)C1C(C#N)=C(N)Oc2c1c(=O)oc1ccccc21 (stereo not given),-10.2%
8,CCCCCn1c(=O)c(C(=O)Nc2ccc(OC)cc2)c(O)c2ccccc21,0%
9,CCC12CN3CCN(CC(C3)/C1=N\O)C2,5.4%
10,CC(=O)N1N=C2C3CCN(CC3)C2C1c1ccc([N+](=O)[O-])cc1 (stereo not given),6.2%
11,CC/C(=C\C=C\C1C=CC2CCCC2C1C(=O)c1ccc[nH]1)C1OC(C(C)C(=O)O)CCC1C (stereo not given),12.9%
12,O=C(Cc1ccc(Br)cc1)N1CCN(Cc2ccccc2)CC1,1.9%
13,Cc1cccc(-n2c(/C=C/c3ccc(O)cc3)nc3ccccc3c2=O)c1,-4.6%
14,COc1cccc(C=C2C(=O)NC(=O)NC2=O)c1,9.8%
15,COc1ccccc1-n1c(/C=C/c2ccc(O)cc2)nc2ccccc2c1=O,119%
16,O=c1oc2ccccc2c(O)c1C(c1cccnc1)c1c(O)c2ccccc2oc1=O,3.8%
17,Cc1cc(C=C2C(=O)NC(=O)NC2=O)c(C)n1-c1ccc(N(C)C)cc1,0.1%
18,Cc1ccc(-n2c(-c3ccccc3F)nc3ccccc3c2=O)cc1,-0.1%
19,O=c1c2ccccc2nc(/C=C\c2ccccc2)n1-c1ccc(O)cc1,-4.1%
20,CCC(=O)O[C@]1(c2ccccc2)CCN(C)[C@H]2CCC[C@H]21,-5.5%
21,COc1ccc(C(c2c(O)c3ccccc3oc2=O)c2c(O)c3ccccc3oc2=O)cc1CN1CCOCC1,15.4%
22,C=CCSc1nc2ccccc2c(=O)n1-c1ccccc1OC,1.1%

row,Compound,displacement
1,Cc1cccnc1-n1c(-c2ccc(Cl)cc2Cl)nc2ccccc2c1=O,-12.2%
2,OC1C2CCC1C(N1CCCCC1)CC2 (stereo not given),-3.7%
3,COc1ccc(CN2CCN(Cc3ccccc3Cl)CC2)cc1Br,-15%
4,Cc1cc(Cl)ccc1OCC(=O)N1CCN(C/C=C/c2ccccc2)CC1,-0.9%
5,CN1C(=O)NC(=O)/C(=C/c2cn(C)c3ccccc23)C1=O,108%
6,O=[N+]([O-])N=C1NC(OCc2ccccc2)C(OCc2ccccc2)N1 (stereo not given),1.4%
7,CCCCn1c(=O)c(C(=O)Nc2ccc(I)cc2)c(O)c2ccccc21,7.1%
8,CC1(C)C(C(=O)Nc2cccnc2)C1(C)C,-1.5%
9,CN1C(=O)NC(=O)/C(=C\c2cc3c(cc2Cl)OCO3)C1=O,0.4%
10,O=c1oc2ccccc2c2c1C(c1ccc(Cl)cc1)c1c(c3ccccc3oc1=O)O2,10.3%
11,CC12CCC3C(CC=C4CC(O)CCC43C)C1C/C(=C\c1ccc(F)cc1)C2=O (stereo not given),15.1%
12,CCC1(c2ccccc2)C(=O)NC(=O)N(C(=O)c2ccccc2Br)C1=O (stereo not given),0.5%
13,O=C(Nc1ccc(Cl)cc1C(=O)c1ccccc1Cl)c1ccco1,0.4%
14,COc1cc(OC)c(OC)cc1CN1CCN(C(=O)COc2ccccc2)CC1,-13.1%
15,COc1ccc(C=C(C#N)C#N)c(OC)c1,3.6%
16,O=C1NC(=S)NC(=O)C1=Cc1ccc(-c2ccc([N+](=O)[O-])cc2Br)o1,29%
17,COc1cc(C=C2C(=O)NC(=O)NC2=O)cc(Cl)c1O,8.5%
18,COc1cc(/C=C2\C(=O)NC(=O)N(c3ccccc3)C2=O)c([N+](=O)[O-])cc1OC,22.8%
19,O=c1c2ccccc2[nH]c(=S)n1-c1ccc(Cl)cc1,-10.5%
20,COc1ccc(OC)c(CN2CCN(C(=O)COc3ccccc3)CC2)c1,0.4%
21,CC(C)Oc1ccc(Br)cc1C=C1C(=O)NC(=O)NC1=O,14.5%
22,O=c1c2ccccc2nc(/C=C/c2cc(Br)ccc2O)n1-c1ccc([N+](=O)[O-])cc1,6.7%
